Measurements reported in the GPR68 mutational scans of Howard et al. (2025).
Scores whose standard error is large were omitted. Not listed are two conditions whose scores span a narrow range. Read del as a deletion of the residues named and ins as an insertion between two positions. For part of these data: The concentration of ogerin is not given here.

B1: GPR68, Q15743 (parent)
chain: MGNITADNSSMSCTIDHTIHQTLAPVVYVTVLVVGFPANCLSLYFGYLQIKARNELGVYLCNLTVADLFYICSLPFWLQYVLQHDNWSHGDLSCQVCGILLYENIYISVGFLCCISVDRYLAVAHPFRFHQFRTLKAAVGVSVVIWAKELLTSIYFLMHEEVIEDENQHRVCFEHYPIQAWQRAINYYRFLVGFLFPICLLLASYQGILRAVRRSHGTQKSRKDQIQRLVLSTVVIFLACFLPYHVLLLVRSVWEASCDFAKGVFNAYHFSLLLTSFNCVADPVLYCFVSETTHRDLARLRGACLAFLTCSRTGRAREAYPLGAPEASGKSGAQGEEPELLTKLHPAFQTPNSPGSGGFPTGRLA

Legend:
[1] = variants of: B1; experiment: cAMP reporter score (Enrich2 score, wild type = 0); higher = more signal; HEK293T, FACS bins
[2] = variants of: B1; experiment: surface expression score (Enrich2 score, wild type = 0); higher = more signal; HEK293T, FACS bins

Variant | cAMP reporter score ([1]; pH 5.5) | cAMP reporter score ([1]; pH 6) | cAMP reporter score ([1]; pH 6, modulator: ogerin) | cAMP reporter score ([1]; pH 6.5, modulator: ogerin) | surface expression score [2]
L135_K136insG | -0.657 | -1.1 | -1.74 | -0.545 | -2.13
L135_K136insGS | -0.823 | -1.15 | -2.25 | -1.24 | -2.5
K136_A137insGS | -1.48 | -1.78 | -2.57 | -0.85 | -2.33
K136_A137insGSG | -2.05 | 0.824 | -2.4 | -0.652 | –
A137C | 0.177 | 1.17 | 1.88 | 0.936 | 0.695
A137D | -1.38 | -0.483 | -1.9 | -1.5 | -1.83
A137E | -0.838 | – | -1.34 | -2.71 | –
A137F | 0.744 | – | -0.794 | -0.442 | –
A137G | 0.803 | -0.013 | -0.082 | -0.758 | -0.585
A137H | 0.416 | – | – | -1.06 | –
A137I | -0.165 | -0.511 | 0.051 | -0.425 | -0.461
A137K | -0.325 | – | -0.013 | -0.521 | -2.51
A137N | -0.888 | -0.851 | -1.36 | -1.54 | -0.786
A137P | -0.645 | -0.782 | -0.42 | -1.26 | -2.39
A137R | -0.154 | – | -0.803 | -0.192 | –
A137S | -0.016 | – | -0.639 | – | -0.392
A137T | -1.3 | – | -0.31 | 1.58 | -0.37
A137V | 0.622 | 3.92 | – | 3.57 | -0.067
A137W | 1.35 | 0.968 | 1.25 | 0.779 | -0.417
A137Y | -1.82 | -1.71 | – | -0.929 | -2.74
A137_A138insGS | -1 | -1.31 | -0.742 | -0.627 | -2.07
A138_V139del | -1.4 | -0.916 | -1.38 | -1.31 | -3.58

Variant | cAMP reporter score ([1]; pH 5.5) | cAMP reporter score ([1]; pH 6) | cAMP reporter score ([1]; pH 6, modulator: ogerin) | cAMP reporter score ([1]; pH 6.5, modulator: ogerin) | surface expression score [2]
V139_G140insGS | -1.41 | -1.2 | -1.53 | -1.34 | -2.13
V139del | -0.875 | 0.389 | -1.35 | -1.32 | -2.51
G140A | 1.03 | 0.494 | 1.35 | 1.43 | 1.07
G140C | 0.651 | -0.2 | 1.27 | 1.13 | 0.558
G140D | -0.856 | – | -1.45 | -0.573 | -2.04
G140E | -0.717 | -1.08 | -1.61 | -1.01 | -1.81
G140F | 0.971 | – | 0.507 | 1.6 | 0.175
G140H | -0.935 | -0.938 | -0.016 | – | -0.554
G140I | 0.71 | 0.265 | 0.142 | 1.59 | 1.24
G140L | 0.569 | 1.02 | 0.135 | 0.283 | 0.639
G140M | -0.12 | -0.158 | 0.078 | 1.1 | 0.061
G140N | 0.202 | – | -0.326 | -0.022 | -2.19
G140P | -1.1 | -1.62 | -1.2 | -1.94 | -1.87
G140Q | -0.581 | -1.47 | 0.138 | -0.501 | -1.23
G140R | -1.43 | -1.09 | -1.43 | -1.37 | -2.61
G140S | 0.526 | 1.36 | 0.454 | 2.49 | 1.29
G140T | 0.597 | 0.562 | 0.69 | 0.137 | 0.757
G140V | -0.48 | -0.52 | -0.757 | -0.131 | -0.175
G140W | 0.534 | 0.643 | 1.02 | 0.837 | 0.941
G140Y | -0.295 | -0.069 | -0.169 | -0.163 | -0.168
V141_S142insGS | -0.214 | -0.586 | -0.876 | -0.114 | –
S142A | -1.43 | -1.54 | -1.64 | -1.23 | -1.46

Variant | cAMP reporter score ([1]; pH 5.5) | cAMP reporter score ([1]; pH 6) | cAMP reporter score ([1]; pH 6, modulator: ogerin) | cAMP reporter score ([1]; pH 6.5, modulator: ogerin) | surface expression score [2]
S142C | -0.766 | -1.01 | -0.43 | -1.59 | -1.51
S142D | -1.8 | -0.958 | -1.31 | -0.541 | -2.92
S142E | -1.55 | -1.27 | -1.7 | -1.07 | -2.35
S142F | -0.409 | -0.058 | -0.652 | -0.426 | –
S142G | -0.769 | -0.23 | -0.778 | -0.769 | -0.77
S142H | -1.53 | -0.222 | -0.869 | -1.16 | -3.31
S142I | -1.79 | 0.031 | -1.63 | -0.96 | –
S142K | -0.555 | -0.668 | -1.27 | -0.78 | -3.48
S142L | -0.945 | -1.06 | -1.75 | -0.842 | -3.34
S142M | -0.405 | -0.971 | -0.683 | -1.73 | -1.71
S142N | -1.15 | – | – | – | -2.07
S142P | -1.41 | -0.73 | -1.6 | -0.984 | -2.53
S142Q | -0.986 | -0.938 | -1.8 | -0.784 | -2.87
S142R | -0.868 | -1.26 | -1.01 | -0.727 | -2.64
S142T | -0.233 | -0.687 | -1.2 | -1.2 | -1.67
S142V | -0.985 | -0.977 | -1.97 | -1.7 | -2.87
S142W | -1.66 | – | – | – | -1.72
S142Y | -0.823 | -1.58 | -2.32 | -0.993 | -2.48
S142_V143insGSG | -1.26 | 0.979 | -0.627 | -0.722 | –
S142_V144del | -0.987 | -0.412 | -0.398 | -0.261 | -2.59
V143A | -0.393 | 0.459 | 0.558 | – | –
V143C | 1.09 | – | 0.848 | 2.93 | 2.09
